Measured values as given in US20120122765A1, “COMPOUNDS AND RELATED METHODS FOR MANIPULATING PARP-1-DEPENDENT CELL DEATH” (priority 2010, published 2012).

Test system: WT mouse embryonic fibroblasts
Experiment: MNNG cytotoxicity in WT MEFs
Settings: 24 hours after MNNG 500 μM for 15 min
Description: Unless otherwise set forth herein, cell cultures, transfection, lentiviral transduction and cytotoxicity referenced in the examples below were prepared using the following materials and procedures. MEF cells from wild type (“WT”) or Harlequin (“Hq”) mice and HeLa cells were cultured in Dulbecco's Modified Eagle's Medium (obtained from Invitrogen) and supplemented with 10% Fetal Bovine Serum (obtained from HyClone), 100 μg/ml streptomycin, and 100 U/ml penicillin (obtained from Invitrogen). Flag-tagged AIF (both WT and Pbm) was transfected using lipofectamine Plus (obtained from Invitrogen). […] Cell viability was determined the following day by unbiased objective computer-assisted cell counting after staining of all nuclei with 7 μM Hoechst 33342 (obtained from Invitrogen) and dead cell nuclei with 2 μM propidium iodide (Invitrogen). The numbers of total and dead cells were counted with the Axiovision 4.3 software (obtained from Carl Zeiss MicoImaging, Germany). At least three separate experiments using at least six separate wells were performed with a minimum of 15,000-20,000 neurons or cells counted per data point. […] The percentage of cell death was determined as the ratio of live to dead cells as compared with the percentage of cell death in control wells to account for cell death attributed to mechanical stimulation of the cultures. […]

B1: WT-AIF-Flag: C-terminal Flag-tagged mouse wild type AIF, delivered by lentivirus, AAV2 or transfection (protein, UniProt Q9Z0X1 1-612, looked up)
chain: MFRCGGLAGAFKQKLVPLVRTVYVQRPKQRNRLPGNLFQQWRVPLELQMARQMASSGSSGGKMDNSVLVLIVGLSTIGAGAYAYKTIKEDQKRYNERVMGLGLSPEEKQRRAIASATEGGSVPQIRAPSHVPFLLIGGGTAAFAAARSIRARDPGARVLIVSEDPELPYMRPPLSKELWFSDDPNVTKTLQFRQWNGKERSIYFQPPSFYVSAQDLPNIENGGVAVLTGKKVVHLDVRGNMVKLNDGSQITFEKCLIATGGTPRSLSAIDRAGAEVKSRTTLFRKIGDFRALEKISREVKSITVIGGGFLGSELACALGRKSQASGIEVIQLFPEKGNMGKILPQYLSNWTMEKVKREGVKVMPNAIVQSVGVSGGRLLIKLKDGRKVETDHIVTAVGLEPNVELAKTGGLEIDSDFGGFRVNAELQARSNIWVAGDAACFYDIKLGRRRVEHHDHAVVSGRLAGENMTGAAKPYWHQSMFWSDLGPDVGYEAIGLVDSSLPTVGVFAKATAQDNPKSATEQSGTGIRSESETESEASEITIPPSAPAVPQVPVEGEDYGKGVIFYLRDKVVVGIVLWNVFNRMPIARKIIKDGEQHEDLNEVAKLFNIHED
modifications: full-length C-terminal Flag tag
notes: C-terminal Flag-tagged mouse wild type AIF, delivered by lentivirus, AAV2 or transfection
For B1, the “effect on MNNG-induced cell death” value was “failed to affect susceptibility of WT MEFs to MNNG-induced cell death”.
